Measurements from PubChem BioAssay AID1460 (National Center for Advancing Translational Sciences (NCATS), 2008).
Out of some 270,000 compounds screened, about 5,800 (2.1%) were called active. Inconclusive means that the source gave no clear call. Such entries were picked first, then a sample of the others. Calls come from the whole dose curve; as a rule, active = well fitted inhibition curve with a large enough effect; inconclusive = small, poorly fitted or top-dose-only effect; inactive = flat fitted curve, though single readings scatter. Potencies beside an inconclusive call are fits to weak or partial responses and may not hold up.

Biological target: Microtubule-associated protein tau (Homo sapiens) (UniProt P10636)
Experiment: qHTS for Inhibitors of Tau Fibril Formation, Thioflavin T Binding; note: nearly all actives have a fitted effect of over 55% in size
Conditions: recombinant tau K18 P301L (four-repeat tau fragment), heparin-induced fibrillization, ThT fluorescence; series mostly up to 57.4 µM
Method in brief: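 Recombinant human tau K18 fragment […] carrying P301L, 15 uM unlabeled plus 0.24 uM Alexa 594-labeled, was fibrillized with 20 uM heparin in 100 mM sodium acetate pH 7 for 6 hr at 37 C; 30 uM ThT fluorescence read after 1 hr.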
% is set by controls: 0 for no effect and ±100 for the full control effect; potency is the fitted concentration of half-maximal effect; tags give direction and shape of the fitted curve.

Sequence of UniProt P10636 (P10636 whole entry, looked up): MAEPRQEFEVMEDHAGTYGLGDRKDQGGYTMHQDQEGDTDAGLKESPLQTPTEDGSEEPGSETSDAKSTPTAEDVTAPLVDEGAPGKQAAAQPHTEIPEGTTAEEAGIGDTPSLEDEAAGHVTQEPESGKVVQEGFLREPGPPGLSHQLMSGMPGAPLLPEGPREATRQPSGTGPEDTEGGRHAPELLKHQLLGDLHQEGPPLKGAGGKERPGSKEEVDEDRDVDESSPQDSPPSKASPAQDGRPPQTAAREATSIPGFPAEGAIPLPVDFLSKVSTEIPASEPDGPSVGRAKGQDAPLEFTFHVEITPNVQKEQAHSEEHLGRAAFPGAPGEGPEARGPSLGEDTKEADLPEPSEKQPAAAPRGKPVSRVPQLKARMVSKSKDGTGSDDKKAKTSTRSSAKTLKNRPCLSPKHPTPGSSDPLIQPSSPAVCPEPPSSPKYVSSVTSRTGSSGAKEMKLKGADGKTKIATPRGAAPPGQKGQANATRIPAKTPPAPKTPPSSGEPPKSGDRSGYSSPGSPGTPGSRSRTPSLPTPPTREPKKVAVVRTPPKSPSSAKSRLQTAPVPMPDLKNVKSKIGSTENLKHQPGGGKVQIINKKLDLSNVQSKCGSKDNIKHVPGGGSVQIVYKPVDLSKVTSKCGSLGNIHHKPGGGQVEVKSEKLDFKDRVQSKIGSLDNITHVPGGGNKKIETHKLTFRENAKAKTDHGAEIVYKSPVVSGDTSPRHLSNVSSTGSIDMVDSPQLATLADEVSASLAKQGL

SMILES | Potency | activity, negative = inhibition
CCOc1ccc(/C=C2/C(=N)N3OC(C)=CC3=NC2=O)cc1OC | inconclusive: 17.8 µM [inhibitor, partial curve] | 
Cc1cc(N/N=C/c2ccccc2)nc(NCc2ccccc2)n1 | inactive | 
COc1ccc(S(=O)(=O)N2CCCCC2)cc1 | inactive | 
O=C(Cc1cccc2ccccc12)N/N=C/c1ccc(O)c([N+](=O)[O-])c1 | inconclusive: 25.1 µM [inhibitor, partial curve] | 
O=[N+]([O-])c1cc(CN2CCCC2)c2cccnc2c1O | active: 15.8 µM | 
CCOc1ccccc1CN1CCN(Cc2cccc3c2OCO3)CC1CCO (configuration not stated) | inactive | 
CCOC(=O)c1ccc(NC(=O)CSc2nnc(-c3cccs3)n2CC)cc1 | inconclusive: 2.82 µM [inhibitor, full curve] | 
COc1cc(/C=N/NC(=O)c2cc(C34CC5CC(CC(C5)C3)C4)[nH]n2)ccc1O | inconclusive: 15.8 µM [inhibitor, partial curve] | 
CCOc1ccc2[nH]c(=O)c(CN(Cc3ccco3)C(CC)c3nnnn3Cc3ccccc3)cc2c1 (configuration not stated) | active: 25.1 µM | 
CCCCCCCCCCCCC(NC(C)=O)(C(=O)OCC)C(=O)OCC | inconclusive: 35.5 µM [inhibitor, single point] | 
Cc1cc2c(cc(C(=O)NCc3cccnc3)n2Cc2ccc(Cl)cc2)o1 | inconclusive: 28.2 µM [inhibitor, partial curve, poor fit] | 
O=C(/C=C/c1ccc(S(=O)(=O)N2CCOCC2)cc1)NC(=S)Nc1ccc(Cl)cc1Cl | inconclusive: 39.8 µM [inhibitor, single point] | 
COCCSc1nc2c(c(=O)[nH]c(=O)n2C)n1Cc1cccc(C)c1 | inactive | 
Cc1cccc(Cn2cc(C(=O)Nc3ccc(F)c(C(F)(F)F)c3)ccc2=O)c1 | inactive | 
c1ccc(N2CCN(c3ccccc3)C2c2ccncc2)cc1 | inconclusive: 22.4 µM [inhibitor, partial curve] | 
COC(=O)C1=C(C)N(Cc2ccccc2)[C@]23O[C@](C(=O)OC)(C(=O)N2C1c1ccccc1)C(C(=O)OC)=C3C(=O)OC (some centres not stated) |  | inactive: -19% [at 11.5 µM]
FC(F)(F)c1nc(=S)c2ccccc2[nH]1 | inconclusive: 35.5 µM [inhibitor, single point] | 
Cc1cccc(NC(=O)c2cc3c([nH]c4ccccc43)c(C)n2)c1C | inconclusive: 0.891 µM [inhibitor, full curve, poor fit] | 
COc1ccc(C2C(C(=O)NCCN3CCOCC3)c3ccccc3C(=O)N2C)cc1OC (configuration not stated) | inconclusive: 22.4 µM [inhibitor, partial curve] | 
Oc1c(Cl)cc(Cl)cc1C=Nc1ccccc1N1CCCC1 | active: 22.4 µM | 
CCOC(=O)c1sc(=S)n(-c2ccc(F)c(F)c2)c1N | inactive | 
O=C(Cc1ccc(Br)cc1)Nc1cccc(-c2cn3c(n2)SCC3)c1 | inconclusive: 35.5 µM [inhibitor, single point] | 
CCOc1ccc2nc(NC(=O)CSc3nnnn3C3CCCCC3)sc2c1 | inactive | 

SMILES | Potency | activity, negative = inhibition
COc1ccc(S(=O)(=O)n2nc(OC(C)=O)cc2N(C(C)=O)C(C)=O)cc1 | inconclusive: 15.8 µM [inhibitor, single point] | 
COCCCn1c(=O)/c(=C\c2ccccc2OC(C)C)s/c1=C(/C#N)C(=O)Nc1ccc(C(=O)O)cc1 | inconclusive: 7.08 µM [inhibitor, partial curve] | 
O=C(CSc1nnc(COc2cccc3cccnc23)o1)N1CCc2ccccc21 | inconclusive: 1 µM [inhibitor, full curve] | 
CCOC(=O)CN1C(=O)C(O)(CC(=O)c2cc(OC)ccc2OC)c2ccccc21 (configuration not stated) | inactive | 
O=C(Nc1ccc(N2CCCC2)cc1)c1ccccc1F | inconclusive: 4.47 µM [inhibitor, partial curve] | 
COC(=O)c1ccc(COc2ccc(/C=N/Nc3nc(C)cc(=O)[nH]3)cc2)cc1 | inconclusive: 0.398 µM [inhibitor, full curve] | 
Cc1cc(C)cc(-n2c(C)cc(/C=N/NC(=O)CSc3ncccn3)c2C)c1 | inconclusive: 44.7 µM [inhibitor, single point] | 
CCOc1ccc(C(=O)Nc2c(C(=O)Nc3ccccc3F)oc3ccccc23)cc1OCC | inactive | 
O=C(Cn1c(=O)n(-c2cccc(Cl)c2)c(=O)c2sc3ccccc3c21)N1CCCC1 | inactive | 
CC(=O)OC1OCCOC1NC(=S)NCc1ccco1 (configuration not stated) | inconclusive: 35.5 µM [inhibitor, single point] | 
COc1ccc(C(=S)N2CCN(C)CC2)cc1Br | inconclusive: 3.55 µM [inhibitor, single point] | 
CC(C)c1nc(SCC(=O)Nc2ccc(N3CCOCC3)cc2)c2ccccc2n1 | inconclusive: 31.6 µM [inhibitor, partial curve] | 
COc1cc(C2C(C#N)=C(N)Oc3n[nH]c(C)c32)cc2c1OCO2 (configuration not stated) | inconclusive: 31.6 µM [inhibitor, single point] | 
Cc1ccc(C(=O)NC(=S)NNC(=O)c2ccccc2[N+](=O)[O-])cc1 | inactive | 
CC(=O)c1ccc(N2CCN(C(=S)Nc3ccccc3)CC2)cc1 | inconclusive: 15.8 µM [inhibitor, partial curve] | 
Cc1cc(C)c(Cn2c3ccccc3c3cnn(CC(=O)N4CCCCCC4)c(=O)c32)c(C)c1 | inconclusive: 5.62 µM [inhibitor, partial curve, poor fit] | 
CSc1cccc(NCc2ccc([N+](=O)[O-])cc2)c1 | inconclusive: 11.2 µM [inhibitor, partial curve] | 
Cc1cccc(C)c1OCC(=O)Nc1nc(-c2ccc(Br)cc2)ns1 | inactive | 
Cc1sc(N/N=C/c2cccnc2)nc1-c1ccc(Cl)cc1 | inconclusive: 5.01 µM [inhibitor, full curve] | 
Cc1cc(C)cc(NC(=O)c2cc(S(=O)(=O)NCc3ccco3)ccc2F)c1 | inconclusive: 39.8 µM [inhibitor, single point] | 
Cc1cccc(-n2c(-c3ccccc3)cn3c4c(=O)[nH]c(=O)n(C)c4nc23)c1 | inactive | 
COc1ccccc1NS(=O)(=O)c1ccc(NN=C2CCCCC2)c([N+](=O)[O-])c1 | inconclusive: 14.1 µM [inhibitor, partial curve] | 
Cc1ccc2nc(SCC(=O)c3c(N)n(C)c(=O)n(C)c3=O)[nH]c2c1 | inactive | 

SMILES | Potency | activity, negative = inhibition
COc1ccc(N2C(=O)[C@@H]3C(c4cccnc4)=NO[C@@H]3C2=O)cc1 | inconclusive: 31.6 µM [inhibitor, partial curve] | 
COC(=O)c1c(NC(=O)c2ccc(C)o2)sc2c1CCCCC2 | inconclusive: 28.2 µM [inhibitor, single point] | 
CC(C)(C)c1ccc(OCc2nc(-c3ccccn3)no2)c(Br)c1 | inconclusive: 14.1 µM [inhibitor, partial curve] | 
FC(F)(F)Oc1ccccc1-c1nnc(-c2cccc(C(F)(F)F)c2)o1 | inconclusive: 1.26 µM [inhibitor, full curve, poor fit] | 
Cc1cc(C)c(C)c(S(=O)(=O)NCc2ccc(C(=O)N3CCCCC3)cc2)c1C | inconclusive: 20 µM [inhibitor, single point] | 
COc1ccc(OCCn2cc(C(=O)C3CCCCC3)c3ccccc32)cc1 | inconclusive: 31.6 µM [inhibitor, single point] | 
CCCN1CCC(NCc2cn(C)nc2-c2ccc(Oc3ccccc3)cc2)CC1 | inconclusive: 39.8 µM [inhibitor, single point] | 
CSc1ccc(/C=N/Nc2ccc(Cl)c(C(=O)O)c2)cc1 | inconclusive: 20 µM [inhibitor, partial curve] | 
Cc1cc(C)n2nc(SCc3ncc(-c4ccccc4)o3)nc2n1 | inactive | 
COc1ccc(C2Sc3ccccc3NC3=C2C(=O)c2ccccc23)c(OC)c1OC (configuration not stated) | inconclusive: 11.2 µM [inhibitor, partial curve] | 
Cc1cc(C)n(-c2ccc(C(=O)OCC(=O)c3ccc(Br)s3)cc2)n1 | inconclusive: 5.01 µM [inhibitor, partial curve] | 
N#Cc1c(NCCN)nc(NCc2ccccc2)c2c1CCN(Cc1ccccc1)C2 | inconclusive: 25.1 µM [inhibitor, single point] | 
Cc1ccc(S(=O)(=O)NCCc2cn3c(C)csc3n2)cc1 | inactive | 
COc1ccc(-c2nnc(C3CCN(C(=O)c4ccccc4F)CC3)o2)cc1 | inconclusive: 31.6 µM [inhibitor, partial curve] | 
Cc1cccc(NC(=O)C2CCN(c3nnc(-n4c(C)ccc4C)s3)CC2)c1C | inconclusive: 28.2 µM [inhibitor, partial curve] | 
COc1cc(OC)cc(-c2cc3nc(C)cc(N4CCN(C(=O)c5ccco5)CC4)n3n2)c1 | inconclusive: 10 µM [inhibitor, partial curve] | 
Cc1cc(C)n(-c2nc3ccccc3nc2N2CCN(S(=O)(=O)c3ccc4ccccc4c3)CC2)n1 | inactive | 
COc1ccc(NC(=O)/C(C#N)=C/c2ccc(OCc3cc(=O)n4nc(C)sc4n3)cc2)cc1 | inconclusive: 2 µM [inhibitor, partial curve] | 
O=C1CCCC2=C1C(c1ccc(Cl)cc1)C1C(=O)c3ccccc3C1=N2 (configuration not stated) | active: 15.8 µM | 
Cc1ccc(CNC(=O)COC(=O)CSc2ccc(Br)cc2C)cc1 | inconclusive: 20 µM [inhibitor, single point] | 
COC(=O)c1c(NC(=O)CCCOc2ccc(C(C)(C)C)cc2)sc2c1CCC(C)C2 (configuration not stated) | inconclusive: 7.08 µM [inhibitor, partial curve, poor fit] | 
